The values below come from paper PMC4336329 (PLoS ONE, 2015).

The whole screen tested about 310,000 compounds, of which about 14,000 (4.5%) showed an effect of 50% or more. Effects have a minus sign here. The list shows a part of the results.
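Note: peak tail current of the secondary pulse compared with the same well before compound.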

The assay deals with human ether-à-go-go-related gene (hERG) potassium channel (human, UniProt Q12809). Briefly: primary screen, population patch clamp on CHO cells stably expressing hERG.
Chain of human ether-à-go-go-related gene (hERG) potassium channel (Q12809 whole entry, looked up): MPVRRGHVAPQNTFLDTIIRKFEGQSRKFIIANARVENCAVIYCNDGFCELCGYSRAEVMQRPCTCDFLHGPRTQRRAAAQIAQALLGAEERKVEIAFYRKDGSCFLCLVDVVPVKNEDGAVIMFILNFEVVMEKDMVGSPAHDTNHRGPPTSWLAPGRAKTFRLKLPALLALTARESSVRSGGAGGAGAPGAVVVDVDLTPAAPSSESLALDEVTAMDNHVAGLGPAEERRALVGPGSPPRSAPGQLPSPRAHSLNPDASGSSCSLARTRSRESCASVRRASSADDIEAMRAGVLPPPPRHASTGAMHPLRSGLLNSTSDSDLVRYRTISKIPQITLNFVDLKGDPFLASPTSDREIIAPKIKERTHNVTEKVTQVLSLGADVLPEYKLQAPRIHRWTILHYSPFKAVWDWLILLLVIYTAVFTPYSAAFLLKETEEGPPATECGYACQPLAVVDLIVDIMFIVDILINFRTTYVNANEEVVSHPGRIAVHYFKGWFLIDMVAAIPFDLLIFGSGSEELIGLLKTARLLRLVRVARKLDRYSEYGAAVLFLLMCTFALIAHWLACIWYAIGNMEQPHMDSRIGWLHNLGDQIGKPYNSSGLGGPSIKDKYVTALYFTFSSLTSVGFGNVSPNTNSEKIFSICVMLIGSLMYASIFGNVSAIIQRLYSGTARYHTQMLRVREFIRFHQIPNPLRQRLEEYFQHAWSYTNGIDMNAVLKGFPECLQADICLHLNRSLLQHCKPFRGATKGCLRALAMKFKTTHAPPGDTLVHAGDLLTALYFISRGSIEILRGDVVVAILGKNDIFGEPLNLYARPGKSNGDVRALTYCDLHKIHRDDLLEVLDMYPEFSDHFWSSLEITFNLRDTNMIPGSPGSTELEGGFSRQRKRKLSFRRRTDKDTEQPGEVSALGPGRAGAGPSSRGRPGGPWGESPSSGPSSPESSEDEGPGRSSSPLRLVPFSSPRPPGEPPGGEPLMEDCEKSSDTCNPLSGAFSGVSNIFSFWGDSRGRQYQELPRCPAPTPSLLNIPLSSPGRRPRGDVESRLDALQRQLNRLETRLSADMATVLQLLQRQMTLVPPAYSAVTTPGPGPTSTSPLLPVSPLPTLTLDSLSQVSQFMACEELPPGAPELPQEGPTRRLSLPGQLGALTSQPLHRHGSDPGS
As to `O=C(O)c1cccc(-n2nnnc2SCc2ccccc2Cl)c1`, the “hERG current change (%, negative = inhibition) at 10uM” value stood at 56.5%.

Regarding `CCN(CC)C(=O)CSc1nnc(CCNC(=O)OC(C)(C)C)o1`, the “hERG current change (%, negative = inhibition) at 10uM” value stood at 4.13%.

For the molecule `Cc1cccc(NC(=S)NCc2ccc3[nH]c4c(c3c2)CCCC4)c1`, the “hERG current change (%, negative = inhibition) at 10uM” value is 13.4%.

Consider `COc1ccc(N(CC(=O)Nc2ccc(C)cc2C)S(=O)(=O)c2ccccc2[N+](=O)[O-])c(OC)c1`, for which the “hERG current change (%, negative = inhibition) at 10uM” value was -24.9%. Under `CC(NC(=O)c1cccc(S(=O)(=O)N2CCc3ccccc3C2)c1)c1ccco1` (stereo not drawn) stands -19%; under `CCC(C)(C)NC(=O)c1cccc(NC(=O)C(C)C)c1`, 13.2%; under `O=C(CCn1c(=O)[nH]c2ccccc2c1=O)Nc1ccccc1`, 16.4%. For the molecule `CCOC(=O)N1CCN(C(=O)c2noc3c2COc2ccccc2-3)CC1`, the “hERG current change (%, negative = inhibition) at 10uM” value is -0.66%. Under `Cc1ccc(NS(=O)(=O)c2ccc(-c3coc(C)n3)cc2)c(Br)c1` stands 2.38%; under `O=C(NC1CCCCCC1)C1Cc2ccccc2CN1C(=O)c1ccco1` (stereo not drawn), 6.53%; under `COc1ccc(NC(=O)CSc2nnnn2C)c([N+](=O)[O-])c1`, 7.1%. Under `CCOC(=O)[C@@]12C(=O)C(=O)N[C@]1(c1ccccc1)C1OCCCC12` (stereo partly drawn) stands -0.445%. The figure for `COc1ccccc1/C=N/Nc1nncc2ccccc12` is 20.9%. `Cc1c(C(=O)OCC2CCCO2)[nH]c2c1C(=O)CC(c1ccco1)C2` (stereo not drawn): the “hERG current change (%, negative = inhibition) at 10uM” value is given as -10.7%.

Regarding `O=C(/C=C/c1ccco1)Nc1ccccc1C(=O)O`, the “hERG current change (%, negative = inhibition) at 10uM” value was 16.3%.

As to `Cc1cc(=O)[nH]c(Nc2cccc(C(F)(F)F)c2)n1`, the “hERG current change (%, negative = inhibition) at 10uM” value is recorded as -8.82%. As to `O=C(N/N=C/c1cc(Cl)cc([N+](=O)[O-])c1O)NC12CC3CC(CC(C3)C1)C2`, the “hERG current change (%, negative = inhibition) at 10uM” value is listed as 11.8%.

As for `O=C(C1CC2CCC1C2)N1CCN(Cc2ccc3c(c2)OCO3)CC1` (stereo not drawn), the “hERG current change (%, negative = inhibition) at 10uM” value is on record as -12.9%. Consider `CCCCNC(=S)NNC(=O)c1nn(C)c(C)c1Cl`, for which the “hERG current change (%, negative = inhibition) at 10uM” value is given as -0.401%. The figure for `c1ccc(C2c3[nH]c4ccccc4c3CCN2Cc2cccn2-c2ccccn2)nc1` (stereo not drawn) is -70.5%; for `O=C(C1=C[C@H](c2ccc(C(F)(F)F)cc2)C[C@H](OCc2ccc(CO)cc2)O1)N1CCN(Cc2ccc3c(c2)OCO3)CC1` it is -19.5%. Under `O=C(Nc1ccc2nc(N3CCOCC3)sc2c1)c1ccccc1` stands -5.32%; under `CCCC(=O)Nc1ccc(C(=O)NCC(=O)OCC)cc1`, 4.47%; under `O=C(CSCCOc1ccccc1)NCc1ccncc1`, -3.26%. As to `CC(c1ccccc1)n1cc(C(=O)NCc2cccnc2)nn1` (stereo not drawn), the “hERG current change (%, negative = inhibition) at 10uM” value is reported as 5.69%. With `O=C(CN(C(=O)c1nsc(Cl)c1Cl)c1cccc(F)c1)NC1CCCC1`, the “hERG current change (%, negative = inhibition) at 10uM” value stood at 12.6%.

In the case of `CCOC(=O)c1cnc2ccc(Br)cc2c1NCCCN1CCOCC1`, the “hERG current change (%, negative = inhibition) at 10uM” value is given as -39%. The figure for `CCCS(=O)(=O)N1CCCC(C(=O)NCCCN2CCN(c3ccc(F)cc3)CC2)C1` (stereo not drawn) is -59.5%; for `O=C1CCCN1S(=O)(=O)c1ccc(F)cc1` it is 6.17%; for `Fc1ccc(CNC(=S)Nc2ccc(Cl)cc2Cl)cc1` it is 2.76%. Under `CCOc1cc(/C=N/NC(=O)CNc2ccc(C)cc2)ccc1OC(=O)c1ccccc1` stands -9.04%; under `Cc1ccc(S(=O)(=O)n2c(=O)oc3ccccc32)cc1`, 0.156%. On to `Cn1c(C(=O)N2CCCC(Nc3ccc(F)cc3)C2)cc2ccccc21` (stereo not drawn), for which the “hERG current change (%, negative = inhibition) at 10uM” value is -10.2%. Under `Cc1cc(C)c(S(=O)(=O)N(CC(=O)N2CCCC2)C2CCCCC2)c(C)c1` stands -38.4%; under `Cc1cc(NC(=O)CSc2ccc3nnc(-c4ccccn4)n3n2)no1`, -6.72%. The figure for `Cc1cc(C)n(S(=O)(=O)c2cc(C)c(C)cc2C)n1` is -5.5%. The figure for `O=C(Nc1ccccn1)c1csc2c1CCCC2` is 9.1%; for `CC(C)(C)c1nc(N2CCN(C(=O)c3ccco3)CC2)c2nnn(Cc3ccccc3)c2n1` it is 13.1%. With `COC(=O)C1(Cc2cc(-c3ccc([N+](=O)[O-])cc3)no2)CCN(C(=O)OC(C)(C)C)CC1`, the “hERG current change (%, negative = inhibition) at 10uM” value is given as -8.82%. Turning to `O=C(O)CCn1c(SCc2ccccc2)nc2ccccc21`, the “hERG current change (%, negative = inhibition) at 10uM” value is reported as -2.27%. The figure for `CN(C)c1ccc(NC(=O)CSc2nc3c(c(=O)[nH]2)CCCC3)cc1` is -20.7%. The figure for `CCc1ccc(Nc2c([N+](=O)[O-])c(=O)oc3ccccc23)cc1` is -2.5%.

Turning to `Cc1ccc(CSc2ncccc2C(=O)O)cc1`, the “hERG current change (%, negative = inhibition) at 10uM” value turned out to be 4.94%.

Take `CC(=O)Nc1cccc(NS(=O)(=O)c2cc3c4c(c2)CCN4C(=O)CC3)c1`: the “hERG current change (%, negative = inhibition) at 10uM” value came out at 4.78%.

On to `COCCNC(=O)/C(C#N)=C/c1cn(CC(=O)NCc2ccco2)c2ccccc12`, for which the “hERG current change (%, negative = inhibition) at 10uM” value worked out at 3.53%. With `COc1cccc(CN2CC(C(=O)NCc3ncc(C)[nH]3)CCC2=O)c1` (stereo not drawn), the “hERG current change (%, negative = inhibition) at 10uM” value turned out to be 23.3%.

For `Fc1cccc(CSc2nc3ncccc3[nH]2)c1`, the “hERG current change (%, negative = inhibition) at 10uM” value stood at 4.28%. Under `CC(=O)NCc1ccc(C(=O)CSc2nnc(C3CC3)n2C2CC2)cc1` stands 12.6%; under `Cc1ccc2oc(=O)c3cnn(CC(=O)NCCCOC(C)C)c3c2c1`, -4.52%; under `O=C(O)c1cc(-c2ccco2)[nH]n1`, 2.2%. For the molecule `COc1ccc(CNC(=O)C2CCCN(S(=O)(=O)c3c(C)n[nH]c3C)C2)cc1` (stereo not drawn), the “hERG current change (%, negative = inhibition) at 10uM” value was -9.61%. The figure for `O=C(NC(Cc1ccccc1)C(=O)O)OCC1c2ccccc2-c2ccccc21` (stereo not drawn) is 7.84%; for `CCOc1ccccc1-c1noc(CCCC(=O)NC2CCCCC2)n1` it is -5.35%; for `CCc1c(C)nc(SCC(=O)NC2CCCC2)[nH]c1=O` it is 27.7%. The figure for `COC(CNS(=O)(=O)c1ccc(Cl)cc1)c1ccccc1` (stereo not drawn) is 2.11%; for `Cc1ccc(OCCn2c(=O)n(C)c3ccccc32)cc1` it is -1.88%.

Take `CN(C)C(=O)c1cc2cc([N+](=O)[O-])ccc2s1`: the “hERG current change (%, negative = inhibition) at 10uM” value is reported as -38.9%. Take `CC(C)CC(=O)N1CCN(S(=O)(=O)c2ccc(Cl)cc2)CC1`: the “hERG current change (%, negative = inhibition) at 10uM” value is given as -13.4%. The figure for `Cl.O=[N+]([O-])c1ccccc1OCCCN1CCc2ccccc2C1` is -49.7%; for `COC(=O)c1ccccc1NC(=O)CNC(=O)c1ccc(OC)cc1` it is -14.7%. `COc1ccc(/C=N/N=C2\SCC(=O)N2c2c(C)n(C)n(-c3ccccc3)c2=O)cc1OC`: the “hERG current change (%, negative = inhibition) at 10uM” value worked out at 35.2%. For `Cc1[nH]c(=O)[nH]c1C(=O)CCCCC(=O)OCC(=O)Nc1ccccn1`, the “hERG current change (%, negative = inhibition) at 10uM” value amounted to 12.3%. The figure for `Cc1ccc2nc(C)cc(C(=O)Nc3nccs3)c2c1` is -1.58%. The figure for `Cc1cc(Oc2ccccc2)nc(-c2ccccc2O)n1` is -3.03%. The figure for `CCCCN(C(=O)Cn1nnc2ccccc21)C(C(=O)NCc1ccco1)c1ccncc1` (stereo not drawn) is -11.7%; for `CCOc1ccc(NC(=O)CN2CCN(c3ccccc3C)CC2)cc1S(=O)(=O)N1CCCC1` it is -11.1%; for `O=C(CNC(=O)c1ccccc1F)OCC(=O)c1ccc(Cl)s1` it is 8%. Turning to `COC(=O)C1=NN(c2ccc(C)cc2)C2(S1)SC(C(C)=O)=C(C)N2c1ccccc1` (stereo not drawn), the “hERG current change (%, negative = inhibition) at 10uM” value is on record as -10%.

Regarding `COC(=O)c1ccc(NC(=O)N2CCC(O)(c3cccnc3)CC2)cc1`, the “hERG current change (%, negative = inhibition) at 10uM” value was 9.11%. As for `CCC1CCc2c(sc3nc(SCC(=O)NCc4ccco4)n(-c4ccccc4)c(=O)c23)C1` (stereo not drawn), the “hERG current change (%, negative = inhibition) at 10uM” value is on record as 11.2%. The figure for `CCN1CCC(NC(=O)Nc2cccc(C(F)(F)F)c2)CC1` is -51.1%; for `O=C(CCn1nc(-c2ccc(Cl)cc2)ccc1=O)NCc1cccnc1` it is -28.5%; for `COc1cccc(-c2nc(-c3ccncc3)no2)c1` it is -27.6%. The figure for `Cn1cnnc1SCC(=O)Nc1sc2c(c1C#N)CCCCC2` is -42%; for `O=C(Nc1cccc(C(=O)O)c1)Nc1cccc2ccccc12` it is 23.3%; for `CN(C)C=Nc1nonc1N` it is -1.38%. The figure for `O=CN1CCN(c2c([N+](=O)[O-])c(=O)oc3ccccc23)CC1` is -4.33%. As to `CN1CCc2c(n(CC(O)CNCc3ccccc3)c3ccccc23)C1=O.Cl` (stereo not drawn), the “hERG current change (%, negative = inhibition) at 10uM” value was -52.8%. As to `Cc1ccc(S(=O)(=O)NCc2ccco2)c(C)c1C`, the “hERG current change (%, negative = inhibition) at 10uM” value is reported as -4.4%. Under `CCC(=O)N1CCc2cc(S(=O)(=O)NCCC(=O)Nc3ccccc3C)ccc21` stands 0.186%.

Take `CCOC(=O)c1sc2nc(C)nc(NCCc3ccccn3)c2c1C`: the “hERG current change (%, negative = inhibition) at 10uM” value was 27.6%. Consider `Cc1ccc(N=CC2=C(O)CC(c3ccccc3Cl)CC2=O)cc1` (stereo not drawn), for which the “hERG current change (%, negative = inhibition) at 10uM” value is reported as -6.91%.

Consider `CS(=O)(=O)N(CCC#N)Cc1ccc(/C=C2\C(=O)Nc3ccccc32)o1`, for which the “hERG current change (%, negative = inhibition) at 10uM” value worked out at 19%. The figure for `Cc1ccc(NC(=O)CCC(=O)NNC(=O)c2cccs2)c(C)c1` is -7.48%. `Cc1cc(=O)n2[nH]cc(C(=O)O)c2n1`: the “hERG current change (%, negative = inhibition) at 10uM” value is -7.6%. Under `O=C(Nc1ccc(S(=O)(=O)N2C[C@@H]3C[C@@H](C2)c2cccc(=O)n2C3)cc1)c1ccc(F)cc1` stands -2.39%.

`Cc1onc(-c2ccccc2)c1C(=O)N1CCN(CCc2ccccc2)CC1`: the “hERG current change (%, negative = inhibition) at 10uM” value was -8.08%. On to `COc1cc(/C=N/n2nnnc2N)ccc1OCC(N)=O`, for which the “hERG current change (%, negative = inhibition) at 10uM” value is 22.6%.

On to `Cc1[nH]c2ccccc2c1C(=O)C(=O)Nc1ccc2c(c1)OCCO2`, for which the “hERG current change (%, negative = inhibition) at 10uM” value came out at 7.07%. Under `COc1cc(CCC(=O)Oc2ccc(C(C)=O)cc2)cc(OC)c1OC` stands -15.2%.
